# Measured values published in patent US20240108591A1, “OR2L13 AGONISTS TO TREAT CVD WITH DY[…] ACTIVATION” (The Cleveland Clinic Foundation, priority 2022, published 2024).
# Biological target: T1, Human OR2L13 (Homo sapiens, UniProt Q8N349)
# T1 sequence (Q8N349 1-312): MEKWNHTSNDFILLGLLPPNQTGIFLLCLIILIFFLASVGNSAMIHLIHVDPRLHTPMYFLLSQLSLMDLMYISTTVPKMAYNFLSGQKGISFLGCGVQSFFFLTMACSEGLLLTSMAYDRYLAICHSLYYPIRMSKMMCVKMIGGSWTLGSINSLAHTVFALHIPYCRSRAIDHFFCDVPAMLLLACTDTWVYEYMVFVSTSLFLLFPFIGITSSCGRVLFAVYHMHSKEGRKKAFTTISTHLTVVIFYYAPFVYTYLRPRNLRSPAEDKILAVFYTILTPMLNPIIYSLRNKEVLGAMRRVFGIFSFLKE
# Assay: Odorant screen in OR2L13/RTP1s HEK293 CRE-luciferase reporter cells
# Conditions: HEK293 CRE-luciferase cells with OR2L13 and RTP1s; 0-500 μM; forskolin as positive control
# Description: FIG. 4. Characterization of OR2L13 agonists. A. Human OR2L13 cloned in frame with HA (GFP in a secondary cassette, green) and co-expressed with Receptor Transport Protein ls (RTP1s) (mCherry in a secondary cassette, red) stably in HEK293/cAMP cells. Microscopy (left) and Western blotting (right) confirm OR2L13-HA expression. IP=immunoprecipitation. TCL=total cell lysate. OR2L13 ligands stimulate (Golf) and adenyl cyclase produces cAMP B. A cAMP-Response Element (CRE) expressing HEK293 cells with stable integration of OR2L13-HA was utilized to screen for ligands. C. […]
# The control and RTP1s/OR2L13 reporter cells were used to perform odorant screening. […] The next day, 20 μL of One-Step Luciferase assay system (BPS Bioscience, San Diego, CA) was added to each plate and luciferase activity was read on a Gen5 plate reader. The ratio or OR2L13 cell line/vector cell line was used to indicate a positive response by way of a CRE reporter readout ratio of>1.0, then a dose response curve was constructed for lead compounds.
# Following OR ligation by an external agonist, Golf activates adenylyl cyclase (AC) to hydrolyze cyclic AMP (cAMP) from ATP. […] Using cells expressing only the empty vector as a control, multiple potential olfactory receptor ligands were evaluated.
smiles,measurement,value
"C=C(C)C1CC=C(C)C(=O)C1 (single isomer, unassigned; (-)) [(−) carvone]","OR2L13 activation, cAMP generation (CRE reporter readout, OR2L13 cell line/vector cell line)","reproducibly activated OR2L13, generating endogenous cAMP in a dose-dependent manner"
